In the supplement of paper PMC4967469:
IC50 is the fitted dose that halves viability relative to control wells, and lower means more sensitive; a limit (>, <) means that the fit lies beyond the doses tested. The AUC spans the tested range (256-fold, ending at the top dose) of the same fit; the more sensitive the line, the further below 1. For part of these data: The top dose, if marked as inferred, was derived from the fitted curves, not read from the paper.

What was measured:
Assay in all cases: Viability of human cancer cell lines after 72 h of drug (GDSC screen)
CX-5461 = compound: Cc1cnc(CNC(=O)c2c(=O)c3ccc(N4CCCN(C)CC4)nc3n3c2sc2ccccc23)cn1 [CX-5461]; details: top dose 10.24 µM; top dose inferred
Description: (§1)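 Human cancer cell lines in 384-well plates, medium with 10% serum, drug for 72 h over a 256-fold dose range (nine 2-fold or five 4-fold steps up to the top dose). Adherent lines were fixed and stained with the nucleic acid dye Syto60, suspension lines read with resazurin; signal relative to control wells, capped at 0 and 100%. One two-parameter sigmoid per drug and line, fitted in a mixed model over all curves with the slope shared within a line.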

STF-62247 = compound: Cc1cccc(Nc2nc(-c3ccncc3)cs2)c1 [STF-62247]; details: top dose 10.24 µM; top dose inferred
Description: as §1

CP724714 = compound: COCC(=O)NC/C=C/c1ccc2ncnc(Nc3ccc(Oc4ccc(C)nc4)c(C)c3)c2c1 [CP724714]; details: top dose 10.24 µM; top dose inferred
Description: as §1

ZSTK474 = compound: FC(F)c1nc2ccccc2n1-c1nc(N2CCOCC2)nc(N2CCOCC2)n1 [ZSTK474]
Description: as §1

Cell Line | AUC (CX-5461) | IC50 (CX-5461) [µM] | AUC (STF-62247) | IC50 (STF-62247) [µM] | AUC (CP724714) | IC50 (CP724714) [µM] | AUC (ZSTK474) | IC50 (ZSTK474) [µM]
CADO-ES1 (Ewing sarcoma, suspension) | 0.642 | 1.59 | 0.988 | > 10.2 | 0.974 | > 10.2 | – | –
CHP-134 (neuroblastoma, suspension) | 0.317 | 0.17 | 0.979 | > 10.2 | 0.98 | > 10.2 | – | –
CHSA8926 (chondrosarcoma, adherent) | 0.98 | > 10.2 | 0.979 | > 10.2 | 0.97 | > 10.2 | – | –
COR-L303 (small cell lung carcinoma, suspension) | 0.932 | > 10.2 | 0.938 | > 10.2 | 0.987 | > 10.2 | – | –
COR-L321 (lung, suspension) | 0.896 | > 10.2 | 0.976 | > 10.2 | 0.987 | > 10.2 | – | –
D-423MG (glioma, adherent) | 0.88 | > 10.2 | 0.958 | > 10.2 | 0.935 | > 10.2 | – | –
D-566MG (glioma, adherent) | 0.786 | 4.35 | 0.972 | > 10.2 | 0.984 | > 10.2 | – | –
DOV13 (ovary, adherent) | 0.868 | > 10.2 | 0.966 | > 10.2 | 0.978 | > 10.2 | – | –
EMC-BAC-1 (lung adenocarcinoma, adherent) | 0.899 | > 10.2 | 0.849 | 9.37 | 0.892 | > 10.2 | – | –
EMC-BAC-2 (lung adenocarcinoma, adherent) | 0.91 | > 10.2 | 0.981 | > 10.2 | 0.967 | > 10.2 | – | –
ESO26 (oesophagus, adherent) | 0.569 | 0.978 | 0.989 | > 10.2 | 0.75 | 3.17 | – | –
ESO51 (oesophagus, semi-adherent) | 0.754 | 4.78 | 0.937 | > 10.2 | 0.965 | > 10.2 | – | –
FLO-1 (oesophagus, adherent) | 0.936 | > 10.2 | 0.963 | > 10.2 | 0.958 | > 10.2 | – | –
G-292 Clone A141B1 (osteosarcoma, adherent) | 0.963 | > 10.2 | 0.968 | > 10.2 | 0.975 | > 10.2 | – | –
Hey (ovary, adherent) | 0.726 | 2.68 | 0.983 | > 10.2 | 0.987 | > 10.2 | – | –
Hs746T (stomach, adherent) | 0.947 | > 10.2 | 0.967 | > 10.2 | 0.597 | 1.3 | – | –
JHOS-2 (ovary, adherent) | 0.922 | > 10.2 | 0.981 | > 10.2 | 0.976 | > 10.2 | – | –
JHOS-3 (ovary, adherent) | 0.98 | > 10.2 | 0.98 | > 10.2 | 0.976 | > 10.2 | – | –
KMS-11 (myeloma, suspension) | 0.931 | > 10.2 | 0.965 | > 10.2 | 0.979 | > 10.2 | – | –
KYAE-1 (oesophagus, suspension) | 0.933 | > 10.2 | 0.979 | > 10.2 | 0.356 | 0.245 | – | –
NCC021 (kidney, adherent) | 0.984 | > 10.2 | 0.837 | 8.54 | 0.967 | > 10.2 | – | –
NCI-H630 (large intestine, adherent) | 0.923 | > 10.2 | 0.985 | > 10.2 | 0.941 | > 10.2 | – | –
NCI-H650 (lung adenocarcinoma, adherent) | 0.885 | > 10.2 | 0.983 | > 10.2 | 0.981 | > 10.2 | – | –
OACM5-1 (oesophagus, semi-adherent) | 0.63 | 1.53 | 0.917 | > 10.2 | 0.963 | > 10.2 | – | –
TE-10 (oesophagus, adherent, top dose 5.12 µM) | – | – | – | – | – | – | 0.889 | > 5.12
TE-11 (oesophagus, adherent, top dose 5.12 µM) | – | – | – | – | – | – | 0.966 | > 5.12

Cell Line | AUC (CX-5461) | IC50 (CX-5461) [µM] | AUC (STF-62247) | IC50 (STF-62247) [µM] | AUC (CP724714) | IC50 (CP724714) [µM] | AUC (ZSTK474) | IC50 (ZSTK474) [µM]
TE-12 (oesophagus, suspension, top dose 5.12 µM) | – | – | – | – | – | – | 0.617 | 0.724
TE-15 (oesophagus, suspension, top dose 5.12 µM) | – | – | – | – | – | – | 0.685 | 1.13
TE-441-T (rhabdomyosarcoma, adherent, top dose 5.12 µM) | – | – | – | – | – | – | 0.858 | 3.95
TGBC1TKB (biliary tract, adherent, top dose 5.12 µM) | – | – | – | – | – | – | 0.902 | > 5.12
TGBC11TKB (stomach, adherent, top dose 5.12 µM) | – | – | – | – | – | – | 0.983 | > 5.12
TGBC24TKB (biliary tract, adherent, top dose 5.12 µM) | – | – | – | – | – | – | 0.757 | 1.66
TGW (neuroblastoma, adherent, top dose 5.12 µM) | – | – | – | – | – | – | 0.806 | 2.18
THP-1 (acute myeloid leukaemia, suspension, top dose 5.12 µM) | – | – | – | – | – | – | 0.73 | 1.34
TK10 (kidney, adherent, top dose 5.12 µM) | – | – | – | – | – | – | 0.636 | 0.824
TK (B-cell lymphoma, suspension, top dose 5.12 µM) | – | – | – | – | – | – | 0.554 | 0.443
TMK-1 (stomach, adherent, top dose 5.12 µM) | – | – | – | – | – | – | 0.923 | > 5.12
TOV-21G (ovary, adherent, top dose 5.12 µM) | – | – | – | – | – | – | 0.822 | 3.33
TOV-112D (ovary, adherent, top dose 5.12 µM) | – | – | – | – | – | – | 0.602 | 0.612
TT2609-C02 (thyroid, adherent, top dose 5.12 µM) | – | – | – | – | – | – | 0.878 | > 5.12
TT (thyroid, adherent, top dose 5.12 µM) | – | – | – | – | – | – | 0.903 | > 5.12
TUR (B-cell lymphoma, suspension, top dose 5.12 µM) | – | – | – | – | – | – | 0.58 | 0.522
TYK-nu (ovary, adherent, top dose 5.12 µM) | – | – | – | – | – | – | 0.961 | > 5.12
U031 (kidney, adherent, top dose 5.12 µM) | – | – | – | – | – | – | 0.658 | 0.893
U251 (glioma, adherent, top dose 5.12 µM) | – | – | – | – | – | – | 0.902 | > 5.12
U-2-OS (osteosarcoma, adherent, top dose 5.12 µM) | – | – | – | – | – | – | 0.896 | > 5.12
U-118-MG (glioma, adherent, top dose 5.12 µM) | – | – | – | – | – | – | 0.978 | > 5.12
U-698-M (B-cell leukaemia, suspension, top dose 5.12 µM) | – | – | – | – | – | – | 0.873 | 4.92
UACC-62 (melanoma, adherent, top dose 5.12 µM) | – | – | – | – | – | – | 0.873 | 4.84
UACC-257 (melanoma, adherent, top dose 5.12 µM) | – | – | – | – | – | – | 0.808 | 3.48
UACC-812 (breast, adherent, top dose 5.12 µM) | – | – | – | – | – | – | 0.783 | 2.08
UACC-893 (breast, adherent, top dose 5.12 µM) | – | – | – | – | – | – | 0.681 | 1.23

Cell Line | AUC (CX-5461) | IC50 (CX-5461) [µM] | AUC (STF-62247) | IC50 (STF-62247) [µM] | AUC (CP724714) | IC50 (CP724714) [µM] | AUC (ZSTK474) | IC50 (ZSTK474) [µM]
UM-UC-3 (bladder, adherent, top dose 5.12 µM) | – | – | – | – | – | – | 0.616 | 0.653
UMC-11 (lung carcinoid, adherent, top dose 5.12 µM) | – | – | – | – | – | – | 0.938 | > 5.12
UWB1.289 (ovary, adherent, top dose 5.12 µM) | – | – | – | – | – | – | 0.81 | 4.57
VA-ES-BJ (soft tissue, adherent, top dose 5.12 µM) | – | – | – | – | – | – | 0.956 | > 5.12
VAL (B-cell lymphoma, suspension, top dose 5.12 µM) | – | – | – | – | – | – | 0.494 | 0.308
VCaP (prostate, adherent, top dose 5.12 µM) | – | – | – | – | – | – | 0.534 | 0.397
VM-CUB-1 (bladder, adherent, top dose 5.12 µM) | – | – | – | – | – | – | 0.966 | > 5.12
VMRC-MELG (melanoma, adherent, top dose 5.12 µM) | – | – | – | – | – | – | 0.961 | > 5.12
VMRC-RCW (kidney, adherent, top dose 5.12 µM) | – | – | – | – | – | – | 0.836 | 3.06
VMRC-RCZ (kidney, adherent, top dose 5.12 µM) | – | – | – | – | – | – | 0.672 | 1.05
WIL2-NS (lymphoid neoplasm, suspension, top dose 5.12 µM) | – | – | – | – | – | – | 0.364 | 0.146
WM35 (melanoma, adherent, top dose 5.12 µM) | – | – | – | – | – | – | 0.67 | 0.954
WM278 (melanoma, adherent, top dose 5.12 µM) | – | – | – | – | – | – | 0.823 | 3.54
WM793B (melanoma, adherent, top dose 5.12 µM) | – | – | – | – | – | – | 0.827 | 3.59
WM1552C (melanoma, adherent, top dose 5.12 µM) | – | – | – | – | – | – | 0.56 | 0.467
WM-115 (melanoma, adherent, top dose 5.12 µM) | – | – | – | – | – | – | 0.613 | 0.702
WSU-DLCL2 (B-cell lymphoma, suspension, top dose 5.12 µM) | – | – | – | – | – | – | 0.721 | 1.18
WSU-NHL (lymphoid neoplasm, suspension, top dose 5.12 µM) | – | – | – | – | – | – | 0.87 | 3.84
YAPC (pancreas, adherent, top dose 5.12 µM) | – | – | – | – | – | – | 0.88 | > 5.12
YH-13 (glioma, adherent, top dose 5.12 µM) | – | – | – | – | – | – | 0.731 | 1.52
YKG-1 (glioma, adherent, top dose 5.12 µM) | – | – | – | – | – | – | 0.807 | 2.66
YMB-1-E (breast, adherent, top dose 5.12 µM) | – | – | – | – | – | – | 0.585 | 0.597
YT (lymphoid neoplasm, suspension, top dose 5.12 µM) | – | – | – | – | – | – | 0.141 | 0.0315
huH-1 (liver, adherent, top dose 5.12 µM) | – | – | – | – | – | – | 0.979 | > 5.12
no-10 (glioma, adherent, top dose 5.12 µM) | – | – | – | – | – | – | 0.902 | > 5.12
no-11 (glioma, adherent, top dose 5.12 µM) | – | – | – | – | – | – | 0.815 | 3.76
